The target in the data set is Escherichia coli (laboratory strain). Briefly: barcode share on antibiotic plates over drug-free plates; higher = less susceptible. How it is done: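 A pool of E. coli strains, each edited to carry one amino-acid change in an essential protein, was grown for 48 h on minimal glucose agar with or without antibiotic; strain barcodes were sequenced; mean of two replicates.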

Where [1] appears, read: antibiotic: carbenicillin, 2× MIC (3.1 µg/mL).
The mark [2] stands for this setting: antibiotic: gentamicin, 2× MIC (MIC 0.45 µg/mL).

Residue numbers refer to the chain shown, from its start. Numbers in names are those of the source. ± gives the standard deviation of the averaged measurements. Laboratory Escherichia coli strains with one amino-acid change in an essential protein, pooled on minimal glucose agar with carbenicillin or gentamicin at twice the control MIC (plus kanamycin and chloramphenicol for the plasmids), 48 h. Fold change of barcode share against drug-free plates; higher = less susceptible. Active = above 20 in both replicates (the paper's putatively resistant). '<' = one read or none on drug, '>' = one read or none on a drug-free plate. Shares are relative, so most strains fall below 1 when a few take over. Listed are strains with at least 15 reads on both drug-free plates, and hits; most hits rest on fewer reference reads. Replicate rank correlation about 0.5. Edits are read from barcodes.

The values that follow come from the supplement of paper PMC11876631.

B1: mraY L5W (protein)
chain: MLVWWAEHLVKYYSGFNVFSYLTFRAIVSLLTALFISLWMGPRMIAHLQKLSFGQVVRNDGPESHFSKRGTPTMGGIMILTAIVISVLLWAYPSNPYVWCVLVVLVGYGVIGFVDDYRKVVRKDTKGLIARWKYFWMSVIALGVAFALYLAGKDTPATQLVVPFFKDVMPQLGLFYILLAYFVIVGTGNAVNLTDGLDGLAIMPTVFVAGGFALVAWATGNMNFASYLHIPYLRHAGELVIVCTAIVGAGLGFLWFNTYPAQVFMGDVGSLALGGALGIIAVLLRQEFLLVIMGGVFVVETLSVILQVGSFKLRGQRIFRMAPIHHHYELKGWPEPRVIVRFWIISLMLVLIGLATLKVR
Take B1: the “fold change of barcode share” value runs as follows: under setting [1], 0.394 ± 0.27; under setting [2], 0.0673 ± 0.06.

B2: mraY V28D (protein)
chain: B1 chain with W5L, V28D
On to B2, for which the “fold change of barcode share” value under setting [1] came out at 0.347 ± 0.22.

B3: mraY M78Q (protein)
chain: B1 chain with W5L, M78Q
For B3, the “fold change of barcode share” value was 0.23 ± 0.038 under setting [1] and 0.0952 ± 0.12 under setting [2].

B4: mraY M78A (protein)
chain: B1 chain with W5L, M78A
With B4, the “fold change of barcode share” value under setting [1] was found to be 0.339 ± 0.086 and the “fold change of barcode share” value under setting [2] amounted to 0.0509 ± 0.059.

B5: mraY V28Q (protein)
chain: B1 chain with W5L, V28Q
As for B5, the “fold change of barcode share” value is 0.227 ± 0.059 under setting [1] and less than 0.00866 under setting [2].

B6: mraY M78W (protein)
chain: B1 chain with W5L, M78W
As for B6, the “fold change of barcode share” value was 0.328 ± 0.24 under setting [1] and less than 0.00845 under setting [2].

B7: mraY V28A (protein)
chain: B1 chain with W5L, V28A
On to B7, for which the “fold change of barcode share” value reads like this: under setting [1], 0.368 ± 0.16; under setting [2], less than 0.0158.

B8: metR F37A (protein)
chain: MIEVKHLKTLQALRNCGSLAAAAATLHQTQSALSHQASDLEQRLGFRLFVRKSQPLRFTPQGEILLQLANQVLPQISQALQACNEPQQTRLRIAIECHSCIQWLTPALENFHKNWPQVEMDFKSGVTFDPQPALQQGELDLVMTSDILPRSGLHYSPMFDYEVRLVLAPDHPLAAKTRITPEDLASETLLIYPVQRSRLDVWRHFLQPAGVSPSLKSVDNTLLLIQMVAARMGIAALPHWVVESFERQGLVVTKTLGEGLWSRLYAAVRDGEQRQPVTEAFIRSARNHACDHLPFVKSAERPTYDAPTVRPGSPARL
As to B8, the “fold change of barcode share” value amounted to 1.43 ± 0.18 under setting [1] and 0.0156 ± 0.017 under setting [2].

B9: metR F37D (protein)
chain: B8 chain with A37D
In the case of B9, the “fold change of barcode share” value is 0.549 ± 0.016 under setting [1] and 0.0129 ± 0.00055 under setting [2].

B10: metR F37P (protein)
chain: B8 chain with A37P
Turning to B10, the “fold change of barcode share” value is, setting by setting: under setting [1], 1.21 ± 0.94; under setting [2], 0.0709 ± 0.031.

B11: metR F37Q (protein)
chain: B8 chain with A37Q
For the protein B11, the “fold change of barcode share” value under setting [1] was 1.66 ± 0.68 and the “fold change of barcode share” value under setting [2] turned out to be 0.0389 ± 0.029.

B12: metR F37W (protein)
chain: B8 chain with A37W
Consider B12, for which the “fold change of barcode share” value runs as follows: under setting [1], 1.71 ± 0.44; under setting [2], 0.0108 ± 0.011.

B13: metL F638P (protein)
chain: MSVIAQAGAKGRQLHKFGGSSLADVKCYLRVAGIMAEYSQPDDMMVVSAAGSTTNQLINWLKLSQTDRLSAHQVQQTLRRYQCDLISGLLPAEEADSLISAFVSDLERLAALLDSGINDAVYAEVVGHGEVWSARLMSAVLNQQGLPAAWLDAREFLRAERAAQPQVDEGLSYPLLQQLLVQHPGKRLVVTGFISRNNAGETVLLGRNGSDYSATQIGALAGVSRVTIWSDVAGVYSADPRKVKDACLLPLLRLDEASELARLAAPVLHARTLQPVSGSEIDLQLRCSYTPDQGSTRIERVLASGTGARIVTSHDDVCLIEFQVPASQDFKLAHKEIDQILKRAQVRPLAVGVHNDRQLLQFCYTSEVADSALKILDEAGLPGELRLRQGLALVAMVGAGVTRNPLHCHRFWQQLKGQPVEFTWQSDDGISLVAVLRTGPTESLIQGLHQSVFRAEKRIGLVLFGKGNIGSRWLELFAREQSTLSARTGFEFVLAGVVDSRRSLLSYDGLDASRALAFFNDEAVEQDEESLFLWMRAHPYDDLVVLDVTASQQLADQYLDFASHGFHVISANKLAGASDSNKYRQIHDAFEKTGRHWLYNATVGAGLPINHTVRDLIDSGDTILSISGIFSGTLSWLPLQFDGSVPFTELVDQAWQQGLTEPDPRDDLSGKDVMRKLVILAREAGYNIEPDQVRVESLVPAHCEGGSIDHFFENGDELNEQMVQRLEAAREMGLVLRYVARFDANGKARVGVEAVREDHPLASLLPCDNVFAIESRWYRDNPLVIRGPGAGRDVTAGAIQSDINRLAQLL
In the case of B13, the “fold change of barcode share” value under setting [1] stood at 0.321 ± 0.019 and the “fold change of barcode share” value under setting [2] is 0.0103 ± 0.009.
